± gives the standard deviation of the averaged measurements. Laboratory Escherichia coli strains with one amino-acid change in an essential protein, pooled on minimal glucose agar with carbenicillin or gentamicin at twice the control MIC (plus kanamycin and chloramphenicol for the plasmids), 48 h. Fold change of barcode share against drug-free plates; higher = less susceptible. Active = above 20 in both replicates (the paper's putatively resistant). '<' = one read or none on drug, '>' = one read or none on a drug-free plate. Shares are relative, so most strains fall below 1 when a few take over. Listed are strains with at least 15 reads on both drug-free plates, and hits; most hits rest on fewer reference reads. Replicate rank correlation about 0.5. Edits are read from barcodes.
Biological target: Escherichia coli (laboratory strain)
Test: barcode share on antibiotic plates over drug-free plates; higher = less susceptible
Conditions: antibiotic: gentamicin; 2× MIC (MIC 0.45 µg/mL)
Description: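 A pool of E. coli strains, each edited to carry one amino-acid change in an essential protein, was grown for 48 h on minimal glucose agar with or without antibiotic; strain barcodes were sequenced; mean of two replicates.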

B1: dapD I184W (protein)
chain: MQQLQNIIETAFERRAEITPANADTVTREAVNQVIALLDSGALRVAEKIDGQWVTHQWLKKAVLLSFRINDNQVIEGAESRYFDKVPMKFADYDEARFQKEGFRVVPPAAVRQGAFIARNTVLMPSYVNIGAYVDEGTMVDTWATVGSCAQIGKNVHLSGGVGIGGVLEPLQANPTIIEDNCFWGARSEVVEGVIVEEGSVISMGVYIGQSTRIYDRETGEIHYGRVPAGSVVVSGNLPSKDGKYSLYCAVIVKKVDAKTRGKVGINELLRTID
fold change of barcode share: < 0.0137

B2: der V320A (protein)
chain: MVPVVALVGRPNVGKSTLFNRLTRTRDALVADFPGLTRDRKYGRAEIEGREFICIDTGGIDGTEDGVETRMAEQSLLAIEEADVVLFMVDARAGLMPADEAIAKHLRSREKPTFLVANKTDGLDPDQAVVDFYSLGLGEIYPIAASHGRGVLSLLEHVLLPWMEDLAPQEEVDEDAEYWAQFEAEENGEEEEEDDFDPQSLPIKLAIVGRPNVGKSTLTNRILGEERVVVYDMPGTTRDSIYIPMERDGREYVLIDTAGVRKRGKITDAVEKFSVIKTLQAIEDANVVMLVIDAREGISDQDLSLLGFILNSGRSLVIVANKWDGLSQEVKEQVKETLDFRLGFIDFARVHFISALHGSGVGNLFESVREAYDSSTRRVGTSMLTRIMTMAVEDHQPPLVRGRRVKLKYAHAGGYNPPIVVIHGNQVKDLPDSYKRYLMNYFRKSLDVMGSPIRIQFKEGENPYANKRNTLTPTQMRKRKRLMKHIKKNK
fold change of barcode share: 0.00763 ± 0.004

B3: der V320Q (protein)
chain: MVPVVALVGRPNVGKSTLFNRLTRTRDALVADFPGLTRDRKYGRAEIEGREFICIDTGGIDGTEDGVETRMAEQSLLAIEEADVVLFMVDARAGLMPADEAIAKHLRSREKPTFLVANKTDGLDPDQAVVDFYSLGLGEIYPIAASHGRGVLSLLEHVLLPWMEDLAPQEEVDEDAEYWAQFEAEENGEEEEEDDFDPQSLPIKLAIVGRPNVGKSTLTNRILGEERVVVYDMPGTTRDSIYIPMERDGREYVLIDTAGVRKRGKITDAVEKFSVIKTLQAIEDANVVMLVIDAREGISDQDLSLLGFILNSGRSLVIVQNKWDGLSQEVKEQVKETLDFRLGFIDFARVHFISALHGSGVGNLFESVREAYDSSTRRVGTSMLTRIMTMAVEDHQPPLVRGRRVKLKYAHAGGYNPPIVVIHGNQVKDLPDSYKRYLMNYFRKSLDVMGSPIRIQFKEGENPYANKRNTLTPTQMRKRKRLMKHIKKNK
fold change of barcode share: 0.00684 ± 0.0046

B4: der V320P (protein)
chain: MVPVVALVGRPNVGKSTLFNRLTRTRDALVADFPGLTRDRKYGRAEIEGREFICIDTGGIDGTEDGVETRMAEQSLLAIEEADVVLFMVDARAGLMPADEAIAKHLRSREKPTFLVANKTDGLDPDQAVVDFYSLGLGEIYPIAASHGRGVLSLLEHVLLPWMEDLAPQEEVDEDAEYWAQFEAEENGEEEEEDDFDPQSLPIKLAIVGRPNVGKSTLTNRILGEERVVVYDMPGTTRDSIYIPMERDGREYVLIDTAGVRKRGKITDAVEKFSVIKTLQAIEDANVVMLVIDAREGISDQDLSLLGFILNSGRSLVIVPNKWDGLSQEVKEQVKETLDFRLGFIDFARVHFISALHGSGVGNLFESVREAYDSSTRRVGTSMLTRIMTMAVEDHQPPLVRGRRVKLKYAHAGGYNPPIVVIHGNQVKDLPDSYKRYLMNYFRKSLDVMGSPIRIQFKEGENPYANKRNTLTPTQMRKRKRLMKHIKKNK
fold change of barcode share: < 0.00395

B5: der I318A (protein)
chain: MVPVVALVGRPNVGKSTLFNRLTRTRDALVADFPGLTRDRKYGRAEIEGREFICIDTGGIDGTEDGVETRMAEQSLLAIEEADVVLFMVDARAGLMPADEAIAKHLRSREKPTFLVANKTDGLDPDQAVVDFYSLGLGEIYPIAASHGRGVLSLLEHVLLPWMEDLAPQEEVDEDAEYWAQFEAEENGEEEEEDDFDPQSLPIKLAIVGRPNVGKSTLTNRILGEERVVVYDMPGTTRDSIYIPMERDGREYVLIDTAGVRKRGKITDAVEKFSVIKTLQAIEDANVVMLVIDAREGISDQDLSLLGFILNSGRSLVAVVNKWDGLSQEVKEQVKETLDFRLGFIDFARVHFISALHGSGVGNLFESVREAYDSSTRRVGTSMLTRIMTMAVEDHQPPLVRGRRVKLKYAHAGGYNPPIVVIHGNQVKDLPDSYKRYLMNYFRKSLDVMGSPIRIQFKEGENPYANKRNTLTPTQMRKRKRLMKHIKKNK
fold change of barcode share: 0.00703 ± 0.0046

B6: der I318W (protein)
chain: MVPVVALVGRPNVGKSTLFNRLTRTRDALVADFPGLTRDRKYGRAEIEGREFICIDTGGIDGTEDGVETRMAEQSLLAIEEADVVLFMVDARAGLMPADEAIAKHLRSREKPTFLVANKTDGLDPDQAVVDFYSLGLGEIYPIAASHGRGVLSLLEHVLLPWMEDLAPQEEVDEDAEYWAQFEAEENGEEEEEDDFDPQSLPIKLAIVGRPNVGKSTLTNRILGEERVVVYDMPGTTRDSIYIPMERDGREYVLIDTAGVRKRGKITDAVEKFSVIKTLQAIEDANVVMLVIDAREGISDQDLSLLGFILNSGRSLVWVVNKWDGLSQEVKEQVKETLDFRLGFIDFARVHFISALHGSGVGNLFESVREAYDSSTRRVGTSMLTRIMTMAVEDHQPPLVRGRRVKLKYAHAGGYNPPIVVIHGNQVKDLPDSYKRYLMNYFRKSLDVMGSPIRIQFKEGENPYANKRNTLTPTQMRKRKRLMKHIKKNK
fold change of barcode share: < 0.00201

B7: der I318Q (protein)
chain: MVPVVALVGRPNVGKSTLFNRLTRTRDALVADFPGLTRDRKYGRAEIEGREFICIDTGGIDGTEDGVETRMAEQSLLAIEEADVVLFMVDARAGLMPADEAIAKHLRSREKPTFLVANKTDGLDPDQAVVDFYSLGLGEIYPIAASHGRGVLSLLEHVLLPWMEDLAPQEEVDEDAEYWAQFEAEENGEEEEEDDFDPQSLPIKLAIVGRPNVGKSTLTNRILGEERVVVYDMPGTTRDSIYIPMERDGREYVLIDTAGVRKRGKITDAVEKFSVIKTLQAIEDANVVMLVIDAREGISDQDLSLLGFILNSGRSLVQVVNKWDGLSQEVKEQVKETLDFRLGFIDFARVHFISALHGSGVGNLFESVREAYDSSTRRVGTSMLTRIMTMAVEDHQPPLVRGRRVKLKYAHAGGYNPPIVVIHGNQVKDLPDSYKRYLMNYFRKSLDVMGSPIRIQFKEGENPYANKRNTLTPTQMRKRKRLMKHIKKNK
fold change of barcode share: < 0.00345

B8: dnaA L74A (protein)
chain: MSLSLWQQCLARLQDELPATEFSMWIRPLQAELSDNTLALYAPNRFVLDWVRDKYLNNINGLLTSFCGADAPQARFEVGTKPVTQTPQAAVTSNVAAPAQVAQTQPQRAAPSTRSGWDNVPAPAEPTYRSNVNVKHTFDNFVEGKSNQLARAAARQVADNPGGAYNPLFLYGGTGLGKTHLLHAVGNGIMARKPNAKVVYMHSERFVQDMVKALQNNAIEEFKRYYRSVDALLIDDIQFFANKERSQEEFFHTFNALLEGNQQIILTSDRYPKEINGVEDRLKSRFGWGLTVAIEPPELETRVAILMKKADENDIRLPGEVAFFIAKRLRSNVRELEGALNRVIANANFTGRAITIDFVREALRDLLALQEKLVTIDNIQKTVAEYYKIKVADLLSKRRSRSVARPRQMAMALAKELTNHSLPEIGDAFGGRDHTTVLHACRKIEQLREESHDIKEDFSNLIRTLSS
fold change of barcode share: 0.0151 ± 0.013

B9: dnaA L74Q (protein)
chain: MSLSLWQQCLARLQDELPATEFSMWIRPLQAELSDNTLALYAPNRFVLDWVRDKYLNNINGLLTSFCGADAPQQRFEVGTKPVTQTPQAAVTSNVAAPAQVAQTQPQRAAPSTRSGWDNVPAPAEPTYRSNVNVKHTFDNFVEGKSNQLARAAARQVADNPGGAYNPLFLYGGTGLGKTHLLHAVGNGIMARKPNAKVVYMHSERFVQDMVKALQNNAIEEFKRYYRSVDALLIDDIQFFANKERSQEEFFHTFNALLEGNQQIILTSDRYPKEINGVEDRLKSRFGWGLTVAIEPPELETRVAILMKKADENDIRLPGEVAFFIAKRLRSNVRELEGALNRVIANANFTGRAITIDFVREALRDLLALQEKLVTIDNIQKTVAEYYKIKVADLLSKRRSRSVARPRQMAMALAKELTNHSLPEIGDAFGGRDHTTVLHACRKIEQLREESHDIKEDFSNLIRTLSS
fold change of barcode share: < 0.00339

B10: dnaA L74D (protein)
chain: MSLSLWQQCLARLQDELPATEFSMWIRPLQAELSDNTLALYAPNRFVLDWVRDKYLNNINGLLTSFCGADAPQDRFEVGTKPVTQTPQAAVTSNVAAPAQVAQTQPQRAAPSTRSGWDNVPAPAEPTYRSNVNVKHTFDNFVEGKSNQLARAAARQVADNPGGAYNPLFLYGGTGLGKTHLLHAVGNGIMARKPNAKVVYMHSERFVQDMVKALQNNAIEEFKRYYRSVDALLIDDIQFFANKERSQEEFFHTFNALLEGNQQIILTSDRYPKEINGVEDRLKSRFGWGLTVAIEPPELETRVAILMKKADENDIRLPGEVAFFIAKRLRSNVRELEGALNRVIANANFTGRAITIDFVREALRDLLALQEKLVTIDNIQKTVAEYYKIKVADLLSKRRSRSVARPRQMAMALAKELTNHSLPEIGDAFGGRDHTTVLHACRKIEQLREESHDIKEDFSNLIRTLSS
fold change of barcode share: < 0.0159

B11: dnaA L74P (protein)
chain: MSLSLWQQCLARLQDELPATEFSMWIRPLQAELSDNTLALYAPNRFVLDWVRDKYLNNINGLLTSFCGADAPQPRFEVGTKPVTQTPQAAVTSNVAAPAQVAQTQPQRAAPSTRSGWDNVPAPAEPTYRSNVNVKHTFDNFVEGKSNQLARAAARQVADNPGGAYNPLFLYGGTGLGKTHLLHAVGNGIMARKPNAKVVYMHSERFVQDMVKALQNNAIEEFKRYYRSVDALLIDDIQFFANKERSQEEFFHTFNALLEGNQQIILTSDRYPKEINGVEDRLKSRFGWGLTVAIEPPELETRVAILMKKADENDIRLPGEVAFFIAKRLRSNVRELEGALNRVIANANFTGRAITIDFVREALRDLLALQEKLVTIDNIQKTVAEYYKIKVADLLSKRRSRSVARPRQMAMALAKELTNHSLPEIGDAFGGRDHTTVLHACRKIEQLREESHDIKEDFSNLIRTLSS
fold change of barcode share: 0.0218 ± 0.021
